According to the BET-seq Pho4 binding data (Le et al. 2018):
Some of the results follow. Values were computed here from the reads of four pooled replicates and scatter widely.

target: T1, Pho4 (S. cerevisiae) (UniProt P07270); assay: relative binding free energy (BET-seq); higher = weaker binding; settings: reference: library average
T1 sequence: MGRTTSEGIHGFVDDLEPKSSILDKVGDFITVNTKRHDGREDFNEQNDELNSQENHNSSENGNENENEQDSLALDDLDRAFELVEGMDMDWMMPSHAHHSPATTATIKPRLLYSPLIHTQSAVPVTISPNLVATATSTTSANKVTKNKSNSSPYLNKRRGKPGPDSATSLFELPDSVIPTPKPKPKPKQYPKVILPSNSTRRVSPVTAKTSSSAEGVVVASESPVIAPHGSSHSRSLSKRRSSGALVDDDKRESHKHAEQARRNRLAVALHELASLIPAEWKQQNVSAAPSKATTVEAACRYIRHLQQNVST

Which “relative binding free energy” value does the source give for TATGTCACGTGAGTGC here?
The value was 0.19 kcal/mol.

Which “relative binding free energy” value does the source give for TTTTTCACGTGCTTCA here?
The value was 0.18 kcal/mol.

Which “relative binding free energy” value does the source give for TAATGCACGTGGGTTG here?
The value was -0.16 kcal/mol.

For GTTGGCACGTGGCGTA, which “relative binding free energy” value is on record?
Its value is -0.2 kcal/mol.

GTGCGCACGTGTGGTA was tested. Which “relative binding free energy” value did it give?
The value was 0.02 kcal/mol.

With AAGCTCACGTGGGGGT as the sequence, how does the “relative binding free energy” value read?
The value was 0.09 kcal/mol.

AAGTACACGTGTTAGT was tested. Which “relative binding free energy” value did it give?
Its value is 0.01 kcal/mol.

TAAGGCACGTGGTAAA was tested. Which “relative binding free energy” value did it give?
The value was -0.02 kcal/mol.

Which “relative binding free energy” value does the source give for GGGTCCACGTGAATTT here?
Its value is 0.38 kcal/mol.

How did the “relative binding free energy” value turn out when ATAGGCACGTGCGGGA was run?
Its value is -0.27 kcal/mol.

GGTTGCACGTGACTTA was tested. Which “relative binding free energy” value did it give?
Its value is 0.09 kcal/mol.

Which “relative binding free energy” value does the source give for GGACGCACGTGGTGAT here?
Its value is 0.02 kcal/mol.

Which “relative binding free energy” value does the source give for CTCTTCACGTGTGTTG here?
The value was 0.15 kcal/mol.

Which “relative binding free energy” value does the source give for AAGCGCACGTGGGGTA here?
Its value is -0.31 kcal/mol.

For CTTTGCACGTGTTCTG, which “relative binding free energy” value is on record?
The value was -0.08 kcal/mol.

Which “relative binding free energy” value does the source give for CATTTCACGTGCGGGT here?
The value was 0.41 kcal/mol.

With CTCAGCACGTGGTGGG as the sequence, how does the “relative binding free energy” value read?
The value was -0.15 kcal/mol.

Which “relative binding free energy” value does the source give for GGGAACACGTGAATGG here?
The value was 0.33 kcal/mol.

With TGGTTCACGTGGAGGA as the sequence, how does the “relative binding free energy” value read?
The value was 0.3 kcal/mol.

How did the “relative binding free energy” value turn out when CAGTTCACGTGTATAT was run?
The value was 0.33 kcal/mol.

For AAATACACGTGGGTGT, which “relative binding free energy” value is on record?
Its value is -0.1 kcal/mol.

With GCTGGCACGTGTTTGA as the sequence, how does the “relative binding free energy” value read?
Its value is -0.03 kcal/mol.

With CGGTTCACGTGGGACG as the sequence, how does the “relative binding free energy” value read?
The value was 0.1 kcal/mol.

With GTACGCACGTGGTTGT as the sequence, how does the “relative binding free energy” value read?
The value was -0.11 kcal/mol.

For ATTCTCACGTGTCGGG, which “relative binding free energy” value is on record?
Its value is 0.22 kcal/mol.

How did the “relative binding free energy” value turn out when AGTTGCACGTGTGCCG was run?
The value was 0 kcal/mol.

For ACGTTCACGTGGAAGG, which “relative binding free energy” value is on record?
Its value is 0.23 kcal/mol.

Which “relative binding free energy” value does the source give for TCGTGCACGTGCAGGT here?
The value was -0.13 kcal/mol.

Which “relative binding free energy” value does the source give for ATGTTCACGTGGGCGC here?
The value was 0.19 kcal/mol.

For AGGGGCACGTGCGTAT, which “relative binding free energy” value is on record?
The value was -0.11 kcal/mol.

Which “relative binding free energy” value does the source give for TGGCACACGTGGTTGT here?
The value was -0.03 kcal/mol.

How did the “relative binding free energy” value turn out when TTTGGCACGTGTTCTA was run?
Its value is -0.14 kcal/mol.

Which “relative binding free energy” value does the source give for AGTAGCACGTGGGAGG here?
Its value is -0.2 kcal/mol.

For ATGGCCACGTGGAGGG, which “relative binding free energy” value is on record?
Its value is -0.06 kcal/mol.

Which “relative binding free energy” value does the source give for AATCACACGTGGGTGG here?
Its value is -0.07 kcal/mol.

Which “relative binding free energy” value does the source give for GTATTCACGTGCGCGT here?
Its value is 0.12 kcal/mol.

With TATCTCACGTGGGCGG as the sequence, how does the “relative binding free energy” value read?
Its value is 0.02 kcal/mol.

For TTTCGCACGTGGGAGA, which “relative binding free energy” value is on record?
The value was -0.12 kcal/mol.

How did the “relative binding free energy” value turn out when ATGTACACGTGTAGTT was run?
Its value is 0.03 kcal/mol.

ATAGTCACGTGTGACG was tested. Which “relative binding free energy” value did it give?
Its value is 0.16 kcal/mol.

With GTAAGCACGTGTTGGG as the sequence, how does the “relative binding free energy” value read?
The value was 0.09 kcal/mol.

TAGGGCACGTGAGCAG was tested. Which “relative binding free energy” value did it give?
The value was -0.02 kcal/mol.

With TACAGCACGTGCGTGT as the sequence, how does the “relative binding free energy” value read?
Its value is -0.06 kcal/mol.

With GATGTCACGTGGCTGT as the sequence, how does the “relative binding free energy” value read?
The value was 0.18 kcal/mol.

For TGTCGCACGTGCTGGA, which “relative binding free energy” value is on record?
Its value is -0.07 kcal/mol.

How did the “relative binding free energy” value turn out when TGGTACACGTGGTAAG was run?
Its value is 0.04 kcal/mol.

GTTTGCACGTGCAGAG was tested. Which “relative binding free energy” value did it give?
The value was 0.04 kcal/mol.

With ATGGACACGTGTTTGT as the sequence, how does the “relative binding free energy” value read?
The value was 0.02 kcal/mol.

With AGATGCACGTGATGAA as the sequence, how does the “relative binding free energy” value read?
Its value is 0.25 kcal/mol.

AATGTCACGTGTGTCG was tested. Which “relative binding free energy” value did it give?
The value was 0.05 kcal/mol.

Which “relative binding free energy” value does the source give for GTCGGCACGTGGGCGC here?
Its value is -0.14 kcal/mol.

How did the “relative binding free energy” value turn out when GGCTACACGTGTTTGG was run?
The value was 0.13 kcal/mol.

For ATAGGCACGTGGAGCG, which “relative binding free energy” value is on record?
Its value is -0.29 kcal/mol.

TTGGGCACGTGCGCTT was tested. Which “relative binding free energy” value did it give?
The value was -0.2 kcal/mol.

For TAGGACACGTGATGAT, which “relative binding free energy” value is on record?
The value was 0.11 kcal/mol.

CTGGTCACGTGGGGCC was tested. Which “relative binding free energy” value did it give?
Its value is -0.07 kcal/mol.

AGTTCCACGTGGTTGT was tested. Which “relative binding free energy” value did it give?
The value was -0.02 kcal/mol.

With CGAGGCACGTGTGTAG as the sequence, how does the “relative binding free energy” value read?
The value was -0.14 kcal/mol.

With GTGTACACGTGCGAGG as the sequence, how does the “relative binding free energy” value read?
The value was -0.18 kcal/mol.

How did the “relative binding free energy” value turn out when GGAGTCACGTGAAGAG was run?
Its value is 0.28 kcal/mol.

Which “relative binding free energy” value does the source give for GTGTTCACGTGATCGG here?
The value was 0.36 kcal/mol.

How did the “relative binding free energy” value turn out when CGTGGCACGTGTTTAT was run?
The value was -0.09 kcal/mol.

With CTTGTCACGTGTTTGC as the sequence, how does the “relative binding free energy” value read?
The value was 0.06 kcal/mol.

Which “relative binding free energy” value does the source give for GGGGCCACGTGGCCGG here?
Its value is -0.32 kcal/mol.

TTGGTCACGTGGTCTG was tested. Which “relative binding free energy” value did it give?
The value was 0.1 kcal/mol.

TCTAGCACGTGGATGG was tested. Which “relative binding free energy” value did it give?
The value was -0.07 kcal/mol.

TGATACACGTGGGGGC was tested. Which “relative binding free energy” value did it give?
Its value is -0.03 kcal/mol.

Which “relative binding free energy” value does the source give for GGAGACACGTGCGTGT here?
Its value is -0.02 kcal/mol.

How did the “relative binding free energy” value turn out when GGTAGCACGTGTGCAA was run?
The value was 0.11 kcal/mol.

With GTAGTCACGTGGGTAT as the sequence, how does the “relative binding free energy” value read?
Its value is -0.03 kcal/mol.

GTGGCCACGTGTGTTT was tested. Which “relative binding free energy” value did it give?
The value was 0.2 kcal/mol.

For GGATTCACGTGTAAAG, which “relative binding free energy” value is on record?
Its value is 0.21 kcal/mol.

How did the “relative binding free energy” value turn out when TAGGGCACGTGAATAT was run?
The value was 0.06 kcal/mol.

GTGAACACGTGGGTAT was tested. Which “relative binding free energy” value did it give?
Its value is 0.03 kcal/mol.

TAAGTCACGTGAGTTT was tested. Which “relative binding free energy” value did it give?
The value was 0.34 kcal/mol.

For GAAGTCACGTGCGGGG, which “relative binding free energy” value is on record?
Its value is 0.12 kcal/mol.

GTGGTCACGTGCTCGG was tested. Which “relative binding free energy” value did it give?
The value was -0.01 kcal/mol.

For TCATGCACGTGATGTG, which “relative binding free energy” value is on record?
Its value is -0.01 kcal/mol.

Which “relative binding free energy” value does the source give for GCTGGCACGTGCGTGG here?
Its value is -0.19 kcal/mol.

AATGACACGTGGGTGT was tested. Which “relative binding free energy” value did it give?
The value was -0.01 kcal/mol.

With GATTGCACGTGATTGG as the sequence, how does the “relative binding free energy” value read?
Its value is 0.17 kcal/mol.

Which “relative binding free energy” value does the source give for CAAATCACGTGTGAGG here?
Its value is 0.24 kcal/mol.

With TGGTACACGTGAAGTG as the sequence, how does the “relative binding free energy” value read?
Its value is 0.26 kcal/mol.

With CTGGTCACGTGAGATT as the sequence, how does the “relative binding free energy” value read?
Its value is 0.52 kcal/mol.

How did the “relative binding free energy” value turn out when TAAGGCACGTGAATAG was run?
The value was 0.22 kcal/mol.

How did the “relative binding free energy” value turn out when CGTTGCACGTGATTAA was run?
The value was 0.04 kcal/mol.

How did the “relative binding free energy” value turn out when GCTGTCACGTGAAGTG was run?
The value was 0.19 kcal/mol.

How did the “relative binding free energy” value turn out when AGCCGCACGTGGAGGG was run?
Its value is -0.22 kcal/mol.

How did the “relative binding free energy” value turn out when CTTTTCACGTGTGGAA was run?
The value was 0.25 kcal/mol.

How did the “relative binding free energy” value turn out when AGGGCCACGTGGATAG was run?
Its value is -0.1 kcal/mol.

TGGTTCACGTGGGATC was tested. Which “relative binding free energy” value did it give?
Its value is 0.18 kcal/mol.

How did the “relative binding free energy” value turn out when GGTGGCACGTGTGGCC was run?
Its value is 0.01 kcal/mol.

With GGTGACACGTGGTCGG as the sequence, how does the “relative binding free energy” value read?
Its value is 0.02 kcal/mol.

For ATTAGCACGTGGGGTG, which “relative binding free energy” value is on record?
The value was -0.28 kcal/mol.

Which “relative binding free energy” value does the source give for GGGGGCACGTGGGTTC here?
Its value is -0.2 kcal/mol.

Which “relative binding free energy” value does the source give for GCGTACACGTGGGGCG here?
The value was -0.22 kcal/mol.

Which “relative binding free energy” value does the source give for CGGTTCACGTGGCTGG here?
Its value is 0.22 kcal/mol.

How did the “relative binding free energy” value turn out when TTTGGCACGTGACGGG was run?
Its value is 0.07 kcal/mol.

With TTTTTCACGTGTGGAA as the sequence, how does the “relative binding free energy” value read?
Its value is 0.27 kcal/mol.

How did the “relative binding free energy” value turn out when CAGTGCACGTGTAGTG was run?
Its value is 0.01 kcal/mol.

TATGTCACGTGAGGCA was tested. Which “relative binding free energy” value did it give?
The value was 0.21 kcal/mol.

How did the “relative binding free energy” value turn out when GTGCTCACGTGTTGGT was run?
The value was 0.32 kcal/mol.

For TTCAACACGTGGGGTT, which “relative binding free energy” value is on record?
The value was -0.01 kcal/mol.

With AATGTCACGTGTAAGA as the sequence, how does the “relative binding free energy” value read?
The value was 0.15 kcal/mol.

How did the “relative binding free energy” value turn out when TACTACACGTGGTGCG was run?
Its value is 0.26 kcal/mol.

How did the “relative binding free energy” value turn out when TATGTCACGTGTCTTA was run?
The value was 0.08 kcal/mol.

TTTAACACGTGTGCTT was tested. Which “relative binding free energy” value did it give?
Its value is -0.08 kcal/mol.

Which “relative binding free energy” value does the source give for AAGTTCACGTGCCGGT here?
Its value is 0.22 kcal/mol.

Which “relative binding free energy” value does the source give for TATTACACGTGTTTTA here?
The value was 0.14 kcal/mol.

For AATTTCACGTGGCAGG, which “relative binding free energy” value is on record?
Its value is 0.26 kcal/mol.

Which “relative binding free energy” value does the source give for TGATGCACGTGTGTCA here?
The value was 0 kcal/mol.

With AGGTACACGTGTGGGT as the sequence, how does the “relative binding free energy” value read?
Its value is 0.07 kcal/mol.

For CGAGTCACGTGGAATG, which “relative binding free energy” value is on record?
The value was 0.15 kcal/mol.

Which “relative binding free energy” value does the source give for ACAGGCACGTGGGTGT here?
The value was -0.33 kcal/mol.

For TCGTGCACGTGGGCCG, which “relative binding free energy” value is on record?
Its value is -0.16 kcal/mol.
